{"source": "patent US20240139148A1", "about": "“COMPOSITIONS AND METHODS FOR TREATING NON-TUBERCULOUS MYCOBACTERIAL INFECTIONS” (priority 2021, published 2024)", "key": {"WT Mabs ATCC 19977 [1]": {"test_system": "WT Mabs ATCC 19977", "assay": "Acute SCID mouse model of MABSC infection", "settings": "SCID mice; 200 mg/kg gavage; vs antibiotics alone"}, "WT Mabs ATCC 19977 [2]": {"test_system": "WT Mabs ATCC 19977", "assay": "Chronic SCID mouse model of MABSC infection", "settings": "SCID mice; 50 mg/kg gavage every other day for 28 d"}}, "data": [{"smiles": "c1cc([C@H]2CC[C@]3(CC2)OO[C@]2(O3)C3CC4CC(C3)CC2C4)ccc1OCCN1CCOCC1", "note": "[OZ439, artefenomel]", "values": [{"measurement": "adjunct efficacy in combination with antibiotics (AMK, AZI, IMI, CFZ)", "setting": "WT Mabs ATCC 19977 [1]", "result": "potentiated the activity of AZI, IMI and CFZ in the spleen and/or lung"}, {"measurement": "adjunct efficacy in combination with antibiotics (AMK, AZI, IMI, CFZ)", "setting": "WT Mabs ATCC 19977 [2]", "result": "potentiated the activity of AZI in the liver and that of AMK in the lung and liver"}]}]}
